# Values joined by “and” are separate entries in the source; they are usually repeats but may differ in a detail not shown here. Equal values may be shown once. The campaign covered roughly 120,000 compounds. About 5,300 (4.4%) were called active. Inconclusive results, whose numbers are uncertain, are shown with a selection of clear calls. The call rests on the fitted dose curve; in most records, active means well fitted inhibition curve with a large enough effect; inconclusive means small, poorly fitted or top-dose-only effect; inactive means no such curve, though single readings can be large or run the other way. Potencies beside an inconclusive call are fits to weak or partial responses and may not hold up.
# Assay: qHTS Primary assay for Inhibitors of Plasmodium falciparum Dd2 growth in vitro; further: nearly all actives have a fitted effect of over 65% in size;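 on activity, negative = inhibition: plate controls were DMSO vehicle for no effect and reference drug for full effect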
# Conditions: P. falciparum Dd2 growth, SYBR Green, 72 h; activity, negative = inhibition: at 28.9 µM (top of the series) unless noted; series mostly up to 28.9 µM
# Outline: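 Infected erythrocytes (Dd2, 0.3% parasitemia, 2.5% hematocrit final) are added to compound in RPMI-1640/Albumax II medium, grown 72 h at 37C in low oxygen, then lysed with saponin/Triton-X containing SYBR Green and read by fluorescence.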
# Potency means the concentration at half of the fitted maximal effect; tags describe the fitted curve by direction and shape.
Structure (SMILES),outcome,Potency,"activity, negative = inhibition"
COc1ccc(C)cc1NC(=O)N(C)CC1CCOCC1,inactive,–,–
Cn1ccnc1CN1CCOC[C@H]1c1ncc(-c2cccc(Cl)c2)[nH]1,–,active: 5.01 µM,–
O=C(c1cccc(-n2cnnc2)c1)N(Cc1ccc2[nH]ccc2c1)C1CC1,–,"inconclusive: 8.91 µM [inhibitor, partial curve, poor fit]",–
COCc1cc(CNC(=O)C2COc3ccccc3C2)[nH]n1 (centres undefined),–,–,inactive: -4.24%
COc1ccc(-c2nc(-c3ccccc3)c(-c3ccc(O)cc3)[nH]2)cc1,–,"inconclusive: 3.55 µM [inhibitor, partial curve]",–
C=Cc1ccc(CN2C(=O)N(c3cccc(Cl)c3)S(=O)(=O)c3ccccc32)cc1,–,"inconclusive: 10 µM [inhibitor, single point]",–
Cc1cc(C)c2[nH]c(C(=O)N3CCCC3c3nc4ccccc4[nH]3)c(C)c2c1 (centres undefined),–,"inconclusive: 17.8 µM [inhibitor, single point]",–
O=C(NCc1ccc(Cl)cc1)c1ccc(N2CC3CC(C2)[C@H]2CCCC(=O)N2C3)nc1 (some centres undefined),–,"inconclusive: 11.2 µM [inhibitor, single point]",–
CCC1=Nc2cc(C(=O)NC3CCCC3)ccc2Sc2ccc(Br)cc21,–,"inconclusive: 11.2 µM [inhibitor, single point]",–
c1cc(CN2CCC(N3CC(OCC4CC4)C34CCOCC4)CC2)ccn1 (centres undefined),–,"inconclusive: 17.8 µM [inhibitor, single point]",–
Cc1ccc2nc(C3CCCN(Cc4ccc(C#N)cc4)C3)[nH]c(=O)c2c1 (centres undefined),–,"inconclusive: 7.08 µM [inhibitor, partial curve] and inconclusive: 2 µM [inhibitor, single point]",–
Cc1noc(/C=C/c2ccco2)c1S(=O)(=O)N1CCC(C(=O)Nc2ccc(F)c(Cl)c2)CC1,–,"inconclusive: 17.8 µM [inhibitor, single point]",–
CN(CC(=O)N1CCC(CCOc2ccccc2F)C1)S(=O)(=O)c1ccc2c(c1)oc(=O)n2C (centres undefined),–,–,inactive: -22.1%
COCCOC1CN(C2CCN(CC3CCCCC3)CC2)C12CCCCC2 (centres undefined),–,"inconclusive: 0.141 µM [inhibitor, full curve]",–
COCCN1C(=O)c2ccccc2C(C(=O)Nc2nc3c(s2)CCC3)C12CCCC2 (centres undefined),–,active: 12.6 µM,–
O=C(c1ccccc1)N1CCN(c2cc(-c3ccc(Cl)cc3)[nH]n2)CC1,inactive,–,–
Cc1ccccc1COC1CN(C(=O)C2CCN(C(=O)C3CC3)CC2)C1,–,"inconclusive: 3.98 µM [inhibitor, single point]",–
O=C(c1ccc(F)c(Cl)c1)N1CCC(n2cc(-c3nc(-c4ccccc4)no3)nn2)CC1,–,"inconclusive: 3.98 µM [inhibitor, single point]",–
COc1ccc(NC(=O)COc2ccc(-c3nnc4n3CCCC4)cc2)cc1OC,–,active: 8.91 µM,–
O=C(NCC1Cn2cccc2C(=O)N1Cc1cccnc1)c1n[nH]c(=O)c2ccccc12 (centres undefined),–,"inconclusive: 10 µM [inhibitor, single point]",–
CN1[C@@H](CCC(=O)N2CCCC2)CNC(=O)[C@@H]2[C@H]1CCN2C1CCCCC1,–,"inconclusive: 5.62 µM [inhibitor, single point]",–
O=C(c1ccc2[nH]ccc2c1)N1CCC(Cn2cc(C3CCCC3)nn2)CC1,–,"inconclusive: 20 µM [inhibitor, single point]",–

Structure (SMILES),outcome,Potency,"activity, negative = inhibition"
COc1ccc(NC(=O)NC[C@H]2O[C@@H]3C[C@@H](CC(=O)NCc4cnn(C)c4)O[C@@H]3[C@@H]2O)cc1,inactive,–,–
COc1ccccc1N1CCN(S(=O)(=O)c2c(C)sc3ncn(CC(=O)N(C)c4ccc(Cl)cc4)c(=O)c23)CC1,–,"inconclusive: 12.6 µM [inhibitor, partial curve]",–
CC(=O)Nc1ccc2nc(-c3cc(C)ccc3C)[nH]c2c1,–,"inconclusive: 4.47 µM [inhibitor, partial curve, poor fit]",–
COCCN1CC(CO)C2(CCN(C(=O)c3ccc(C(C)C)cc3)CC2)C1 (centres undefined),–,"inconclusive: 11.2 µM [inhibitor, partial curve]",–
CCOc1ccc(-c2cc3c(=O)n(CCNC(=O)c4ccoc4)ccn3n2)cc1,–,"inconclusive: 8.91 µM [inhibitor, partial curve, poor fit]",–
Cc1ccc(OCc2ccc(-c3nc(C#N)c(NCc4cccnc4)o3)o2)cc1,–,"inconclusive: 11.2 µM [inhibitor, single point]",–
CCN1C(=O)CCN(CC2CCCCC2)CC12CCOCC2,–,active: 3.55 µM,–
Cc1ccccc1CN1CCC(CNc2ncnc3onc(-c4ccc(F)cc4)c23)CC1,–,active: 3.98 µM,–
O=C(c1ccc(C(F)(F)F)cc1)N1CCC2(CN[S+](=O)([O-])c3cccnc3O2)C1 (centres undefined),–,–,inactive: 28.1%
Cc1ccc(S(=O)(=O)N[C@H]2C[C@@H](c3nc(-c4ccccc4)no3)N(C)C2)cc1,–,"inconclusive: 3.16 µM [inhibitor, single point]",–
Cc1ccc(-c2nc(CNC(=O)C(C)(C)N)[nH]c2-c2ccccn2)cc1,–,"inconclusive: 11.2 µM [inhibitor, single point]",–
COc1ccccc1N1CCN(CCCNC(=O)c2cnn(-c3cccc(Cl)c3)c2C2CCN(C(=O)OC(C)(C)C)CC2)CC1,–,active: 2 µM,–
Cc1ccc(CN2C(=O)C3(c4ccccc42)N(c2cccc(F)c2)C(=O)CS3(=O)=O)cc1 (centres undefined),–,"inconclusive: 17.8 µM [inhibitor, single point]",–
CCc1nc(-c2c3n(c(=O)n(CC(=O)Nc4ccccc4C)c2=O)CCCCC3)no1,–,–,inactive: -7.22%
CCOC(=O)c1c(C)oc2nc(C)nc(NCc3ccc(F)cc3)c12,–,"inconclusive: 10 µM [inhibitor, single point]",–
CC1CCc2c(sc(NC(=O)C3c4ccccc4Oc4ccccc43)c2C#N)C1 (centres undefined),–,"inconclusive: 15.8 µM [inhibitor, single point]",–
O=C(C1CCN(C(=O)N2CC3CC(C2)[C@H]2CCCC(=O)N2C3)CC1)N1CCN(C2CCCCC2)CC1 (some centres undefined),inactive,–,–
O=C(Nc1ccc2c(N3CCOCC3)ncnc2c1)c1cccc(Br)c1,–,active: 0.891 µM,–
COc1ccccc1CN1CCCC(c2nn(-c3ccc(Cl)cc3)c(=O)[nH]2)C1 (centres undefined),–,"inconclusive: 12.6 µM [inhibitor, single point]",–
C[C@]1(CO)[C@H]2Cc3sc(NC(=O)c4ccco4)nc3[C@@H](CC(=O)Nc3ccccc3)[C@]2(C)CC[C@H]1O,–,active: 7.08 µM,–
CC1=C[C@@H](CNCc2ccc(F)cc2)[C@H](C(C)C)C[C@H]1Cc1nnc(-c2cncn2C)o1,–,"inconclusive: 2.82 µM [inhibitor, partial curve, poor fit]",–
COc1ccc(C2=CC(c3ccccc3Cl)n3nc(-c4ccc(Cl)cc4)nc3N2)cc1 (centres undefined),–,"inconclusive: 7.08 µM [inhibitor, partial curve]",–

Structure (SMILES),outcome,Potency,"activity, negative = inhibition"
CCC(NC(=O)c1cc(COc2ccccc2F)[nH]n1)c1ccncc1 (centres undefined),–,"inconclusive: 17.8 µM [inhibitor, single point]",–
O=C(c1cc(F)ccc1F)N1CCCC2(C1)NC(=O)N(Cc1ccc(Cl)cc1)C2=O (centres undefined),–,"inconclusive: 5.62 µM [inhibitor, partial curve, poor fit]",–
O=C(Cc1ccsc1)N1CC(Oc2ccccc2-c2nc(-c3ccccc3)no2)C1,–,active: 12.6 µM,–
Cc1cnc(CCNS(=O)(=O)c2ccccc2)n1CC1CC1,–,"inconclusive: 2.82 µM [inhibitor, single point]",–
Cc1ccc(Cn2cc(-c3ccncc3)cc2C(=O)NCc2ccc(N(C)C)cc2)cc1,–,"inconclusive: 7.94 µM [inhibitor, partial curve, poor fit]",–
Cc1ccc(CNC(=O)CCCn2c(=O)c3ccccc3n(CC(=O)Nc3ccc(C)c(C)c3)c2=O)cc1,–,"inconclusive: 1.26 µM [inhibitor, partial curve, poor fit]",–
Cn1c(C(=O)NCCc2cnc[nH]2)nc2nc(-c3ccccc3)c(Cl)cc21,–,–,inactive: -10.6% [at 44.1 µM]
COc1ccc(CN2CCC3(C2)NC(=O)c2ccccc2O3)cc1 (centres undefined),–,"inconclusive: 2.51 µM [inhibitor, full curve]",–
COc1ccc(NC(=O)N2CCC3(CC2)CC(OCC2CC2)CCO3)cc1 (centres undefined),–,"inconclusive: 17.8 µM [inhibitor, single point]",–
CCc1noc(C)c1C(=O)N1CC[C@@H](NC(=O)c2ccccn2)[C@H](O)C1,–,–,inactive: 4.75%
CCc1noc(-c2cn(C3CCCN(C(=O)c4cc(Cl)ccc4F)C3)nn2)n1 (centres undefined),–,"inconclusive: 10 µM [inhibitor, single point]",–
COc1ccccc1-c1nnc([C@H]2CCN(C(C)=O)C2)o1,–,–,inactive: -18.3% [at 44.1 µM]
CC1(c2ccccc2)CC(C)(C)N(C(=O)c2cccc(Cl)c2)c2ccccc21 (centres undefined),–,"inconclusive: 17.8 µM [inhibitor, single point]",–
CC(C)C(=O)N1CCC(N2CC(OCC3CC3)C23CCCCC3)CC1 (centres undefined),–,active: 3.16 µM,–
CC(C)N1CC2CCC(C1)N2S(=O)(=O)C1CC1,–,–,inactive: -6.62% [at 44.1 µM]
Cn1cccc1CNC(=O)Cn1nc2c(cc1=O)CCCCC2,–,–,inactive: -8.06%
CCC(=O)N1CCc2cc(Br)cc(S(=O)(=O)N3CCN(c4ccccc4OC)CC3)c21,–,"inconclusive: 10 µM [inhibitor, partial curve, poor fit]",–
CN(C)c1ccc(CN[C@H]2C[C@H]3C(=O)NC[C@@H](CCC(=O)Nc4ccccc4)N3C2)cc1,–,–,inactive: -4.93%
CS(=O)(=O)c1ccc(-c2nc(C(=O)NCc3cccnc3)n3ccncc23)cc1,–,"inconclusive: 7.94 µM [inhibitor, partial curve, poor fit]",–
O=C(C[C@@H]1CCNC[C@@H]1Cc1cc(-c2ccc(F)cc2)on1)NCc1cccnc1,–,"inconclusive: 31.6 µM [inhibitor, single point]",–
